Assay results published in PubChem BioAssay AID463173 (ICCB-Longwood Screening Facility, Harvard Medical School, 2010).
The whole screen tested about 52,000 compounds, of which about 4,300 (8.3%) were called active. No stated cut-off is given here; in the data, active means survival mostly below about 52% (no sharp cut-off); inactive means mostly above about 56%. This is one part of the list.

System: DeltatarO mutant
Assay: growth inhibition of S. aureus wild type versus tarO mutant, primary screen, teichoic acid synthesis inhibitors, RN4220, OD600 (AID 463173)
Details: OD600, 18 h, active compounds read low, screened at 18.75 µg/mL (by protocol)

Compound	survival
Cc1cc(-n2c(C)nc3ccccc3c2=O)ccc1NC(=O)c1ccc(C)c([N+](=O)[O-])c1	active: 37%
Cc1ccc(CN(C(=O)COc2ccc(Cl)c(C)c2)c2ccccn2)o1	inactive: 52%
CCc1nc2sc3c(N4CCC(C)CC4)ncnc3c2c2c1CCCC2	inactive: 134%
Cc1oc2ncn(C)c(=O)c2c1C(=O)Nc1ccccn1	inactive: 102%
O=C(CN1C(=O)COc2ccc(S(=O)(=O)N3CCOCC3)cc21)N1CCN(c2cccc(C(F)(F)F)c2)CC1	inactive: 93%
COc1cc(C2c3c(-c4c(C)cc(C)cc4O)n[nH]c3C(=O)N2CCO)cc(OC)c1OC (stereo not drawn)	inactive: 69%
Cc1nc2nc(SCc3c(F)cccc3Cl)nn2c(C)c1Cc1ccccc1	inactive: 66%
CN(C)S(=O)(=O)c1ccc(C(=O)NCCS(=O)(=O)N2CCN(c3ccccc3)CC2)cc1	inactive: 73%
Cc1ccc(-c2cc(-c3ccc4c(c3)NC(=O)CO4)nc3c2COc2ccc(C)cc2-3)cc1	inactive: 96%
COc1ccc(NC(=O)CCN2CCN(CCO)CC2)c(OC)c1	inactive: 70%
O=C(Nc1ccc2nc(SCc3ccccc3)sc2c1)c1cccc(F)c1	inactive: 91%
COc1ccc(OCCSc2nc(C)c(Cc3ccccc3)c(=O)[nH]2)cc1	inactive: 58%
COc1ccc(Oc2nc3c(c(=O)n(C)c(=O)n3C)n2Cc2ccccc2Cl)cc1	inactive: 54%
CCN(CC)C(=O)CSc1nnc(-c2ccc(OC)cc2)n1CCOC	inactive: 65%
COc1ccccc1Cn1cc(C(=O)c2ccc(Cl)cc2)c(=O)c2cc3c(cc21)OCCO3	inactive: 83%
CCOc1cc2sc(N3CCC(C(=O)Nc4ccccc4Cl)CC3)nc2cc1Br	inactive: 77%
Cc1ccc(CN2CCC(CNC(=O)c3cc4ccc5cccnc5c4[nH]3)CC2)cc1	inactive: 89%
O=C(Nn1cnnc1)c1cccc(C(=O)Nn2cnnc2)c1	inactive: 91%
Cc1cc(S(=O)(=O)C(CNC(=O)COc2ccccc2)c2cccs2)ccc1F (stereo not drawn)	inactive: 107%
Cc1ccc(-c2nn(CC(=O)NC3CCCC3)c3c2cnc2ccc(F)cc23)cc1C	inactive: 93%

Compound	survival
CCCCC(CC)CNC(=O)c1ccc2c(=O)n(CCOC)c(=O)[nH]c2c1 (stereo not drawn)	inactive: 130%
CC(=O)c1cccc(S(=O)(=O)N2CCN(c3ccccc3F)CC2)c1	inactive: 82%
CC(C)(C)c1ccc(C(=O)NCC(c2cccs2)S(=O)(=O)c2ccc(F)cc2)cc1 (stereo not drawn)	inactive: 90%
Cc1ccc(N(CC(=O)NCC(C)c2ccccc2)S(=O)(=O)N(C)C)cc1 (stereo not drawn)	inactive: 75%
CCc1sc(Nc2ccc(Cl)cc2)nc1-c1cc2cccc(OC)c2oc1=O	inactive: 70%
Cc1cc(OCC(=O)Nc2cc(-c3nc4ccccc4[nH]3)ccc2C)ccc1Cl	inactive: 96%
CC(C(=O)Nc1ccc(F)c(Cl)c1)N1Cc2ccccc2C1=O (stereo not drawn)	active: 8%
COc1ccc(-c2noc(N3CCN(c4cccc(Cl)c4)CC3)n2)cc1OC	inactive: 83%
Cc1ccccc1C(=O)Nc1nnc(SCc2cc(=O)n3ccccc3n2)s1	inactive: 61%
CCOc1ccc(C(=O)CSc2nnc3cc(C)c4ccccc4n23)cc1	inactive: 72%
CCOC(=O)c1cc2occc2n1C(C)C(=O)OCC (stereo not drawn)	inactive: 80%
COc1ccccc1CNC(=O)COc1cc(=O)n(C)c2ccccc12	inactive: 62%
CCOc1cc(C(=O)Nc2nnc3n2CCS3)cc(OCC)c1OCC	inactive: 69%
COc1cc(/C=C(\C#N)c2nc3ccc(C)cc3[nH]2)ccc1OC(C)C	active: 46%
O=C(NCc1cccs1)c1cc2sccc2n1Cc1ccccc1	inactive: 76%
CCc1ccc(S(=O)(=O)c2c[nH]c3cc(OC)c(OC)cc3c2=O)cc1	inactive: 88%
COc1ccc2cc3cc(C(=O)NCCc4ccccc4)sc3nc2c1Cl	inactive: 69%
Cc1cn2c(=O)cc(COC(=O)c3cccc(NC(=O)COc4ccc(Cl)cc4)c3)nc2s1	inactive: 102%
COC(=O)c1c(NC(=O)COc2ccccc2Cl)sc2c1CCC(C(C)(C)C)C2 (stereo not drawn)	inactive: 131%
Cc1ccc(CCNC(=O)c2cc3sccc3n2Cc2ccc(F)cc2)cc1	inactive: 87%

Compound	survival
Cc1ccc(C(=O)c2cn(Cc3ccccc3F)c3cc4c(cc3c2=O)OCO4)cc1	inactive: 75%
COC(=O)c1ccc(Cl)cc1NC(=O)N1CCC(CN2CCCC2)CC1	inactive: 84%
CCOC(=O)c1sc(N2N=C(C)CC2=O)nc1C	inactive: 76%
N#C/C(=C\c1ccc(Br)cc1)c1nc(-c2cc3cc(Br)ccc3oc2=O)cs1	inactive: 79%
COc1cc(OC)c(NC(=O)CCn2cccn2)cc1Cl	inactive: 79%
CN(Cc1ccccc1)C(C(=O)NC1CCCCC1)c1ccc(Cl)cc1 (stereo not drawn)	active: 37%
Fc1ccc(C(Nc2ccc(Cl)c(C(F)(F)F)c2)c2nnc(-c3ccccc3)o2)cc1 (stereo not drawn)	inactive: 71%
Cc1ccccc1NC(=O)Cn1c(=O)n(-c2ccc(CC(=O)NCC3CCCO3)cc2)c(=O)c2ccccc21 (stereo not drawn)	inactive: 106%
COc1cccc(NC(=O)C(=O)NCC(c2ccc3c(c2)OCO3)N2CCOCC2)c1 (stereo not drawn)	inactive: 49%
O=C(Cn1c(=O)n(-c2ccc(Cl)cc2)c(=O)c2sc3ccccc3c21)NC1CCCCC1	inactive: 96%
COc1ccc(-c2cc(C(F)(F)F)nc(NCc3ccccc3)n2)cc1	active: -4%
CCn1nnc(NC(=O)COc2ccccc2)n1	inactive: 90%
CCOc1cc(C(C#N)N2CCCCC2)ccc1OC (stereo not drawn)	inactive: 74%
CCS(=O)(=O)c1nc2ccccc2n1CC(=O)Nc1ccccc1C(=O)OC	inactive: 55%
C1CCN(c2nc(N3CCCC3)nc(N3CCNCC3)n2)C1	inactive: 97%
CCc1ccc(C(=O)c2c(N)c(-c3nc(-c4ccc5c(c4)OCO5)cs3)c3ccccn23)cc1	inactive: 106%
Oc1c(C(c2ccc(Br)cc2)N2CCOCC2)sc2nc(-c3ccco3)nn12 (stereo not drawn)	inactive: 58%
COc1ccc(CCNC(=O)CCn2c(=O)c3ccccc3n(Cc3c(C)cc(C)cc3C)c2=O)cc1OC	inactive: 89%
